The campaign covered roughly 410,000 compounds. About 7,200 (1.8%) were called active. The inconclusive results got no clear call from the source; some entries with a clear call stand among them for comparison. Calls follow the shape of the dose curve; as a rule, active = well fitted activation curve with a large enough effect; inconclusive = small, poorly fitted or top-dose-only effect, or another doubt; inactive = no such curve, though single readings can be large or run the other way. Potencies of inconclusive entries are left out as doubtful fits.
Assay: qHTS of TDP-43 Inhibitors; also: nearly all actives have a fitted effect of over 50% in size; as to growth rescue (activation): % of control where 0% means no effect
Conditions: TDP-43 expressing yeast growth rescue, BacTiter-Glo, 24 h; growth rescue (activation): at 46.1 µM (top of the series) unless noted
Summary of the method: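 Readout is BacTiter-Glo luminescence of cell growth, so inhibitors register as activators. TDP-43-expressing yeast at OD600=0.02 in galactose medium, after raffinose pregrowth to mid-log, were incubated with compound for 24 hr at 30 deg C.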
Potency is read from the fitted curve at half-maximal effect; tags tell the direction and shape of the fitted curve.

| SMILES | Potency | growth rescue (activation) |
| --- | --- | --- |
| CCCCC(=O)Nc1nc(C)c(-c2csc(Nc3ccc(Cl)cc3)n2)s1 | inconclusive [activator, partial curve] | – |
| CC1=NN(C(N)=S)C(=O)C1N=Nc1ccc(Cl)cc1 (stereo not given) | inconclusive [activator, full curve] | – |
| COc1ccc2cc(C[C@@H]3CC[C@@H](CO)O3)ccc2c1 | inconclusive [activator, partial curve, poor fit] | – |
| O=C(CSCc1ccc(Br)cc1)NCCc1ccccc1 | inconclusive [activator, single point] | – |
| Cc1nn(-c2ccccc2)c2c1N(CCCC(=O)NCc1ccc(N(C)C)cc1)C(=O)CS2 | – | inactive: 16% |
| COc1ccc(CC(=O)Nc2sc3c(c2C(=O)Nc2cccc(Cl)c2)CCCCC3)cc1 | inconclusive [activator, single point] | – |
| CCc1ccc(-c2cc(N)n(-c3ccccc3)n2)cc1 | inconclusive [activator, partial curve] | – |
| CSc1ccc(/C=C/C(=O)OCC(=O)NCC2CCCO2)cc1 (stereo not given) | inconclusive [activator, partial curve] | – |
| COc1ccc2nc3oc(C(=O)N4CCN(c5cc(C)ccc5C)CC4)cc3cc2c1 | – | inactive: -5.02% |
| COc1ccccc1N1CCN(C(=O)C(CCSC)NS(=O)(=O)c2ccc3c(c2)oc(=O)n3C)CC1 (stereo not given) | – | inactive: -6.41% |
| CCn1cc(Br)c(C(=O)Nc2ccc(C(=O)OC(C)C)cc2)n1 | inconclusive [activator, partial curve] | – |
| COc1ccc(NC(=S)NCc2ccc(F)cc2)c(OC)c1 | – | inactive: 0% |
| CN(C)S(=O)(=O)c1ccc(C(=O)Nc2nnc(Cc3ccccc3)s2)cc1 | – | inactive: 20% |
| CCNC(=O)CSC1=N/C(=C\c2ccc(O)c(OCC)c2)C(=O)N1c1ccc(OC(F)F)cc1 | – | inactive: 5.25% |
| O=C(O)C1=C(C2CCCCC2)C(=O)c2ccccc21 | – | inactive: 0% |
| Cc1cc(=O)[nH]c2nnc(SCc3ccc(F)cc3)n12 | inconclusive [activator, full curve, poor fit] | – |
| CC(C)C(C(=O)Nc1ccc2c(c1)OCCO2)N1C(=O)c2ccccc2C1=O (stereo not given) | inconclusive [activator, partial curve] | – |
| Cc1ccc(OCCn2nc3ccccc3n2)c(C)c1 | inconclusive [activator, partial curve] | – |
| O=C(Nc1ccc(F)cc1)N1CCN(c2ccccc2F)CC1 | – | inactive: 2.11% |
| CCO/C(C)=N/Oc1cncnc1 | – | inactive: 0% |
| CCCCCc1c(-c2cccc(F)c2)ncn1CCc1ccccc1OC | inconclusive [activator, partial curve] | – |
| C(=C\c1nc(-c2cccnc2)no1)/c1ccccc1 | active: 2.24 µM | – |
| O=C(Nc1ccc2c(c1)N(S(=O)(=O)c1cccs1)CCC2)c1c(F)cccc1F | inconclusive [activator, single point] | – |

| SMILES | Potency | growth rescue (activation) |
| --- | --- | --- |
| COc1cc2c(C(=O)N3CCN(c4cccc(C(F)(F)F)c4)CC3)cn(CC(C)C)c(=O)c2cc1OC | inconclusive [activator, partial curve] | – |
| c1ccc(-n2nnnc2Sc2ncnc3sc4c(c23)CCCC4)cc1 | inconclusive [activator, partial curve] | – |
| CCOC(=O)c1nnn(-c2nonc2N)c1CSc1ccc(C)cc1 | active: 22.4 µM | – |
| CC(=O)Nc1ccc(NC(=O)C(C)OC(=O)C2(c3ccc(Cl)cc3)CCCC2)cc1 (stereo not given) | inconclusive [activator, single point] | – |
| COc1ccc(/C=C/C(=O)NCCSCc2ccco2)cc1 | inconclusive [activator, partial curve] | – |
| CC(C)c1ccc(CNc2nc(-c3ccco3)nn2C(=O)c2ccc([N+](=O)[O-])cc2)cc1 | inconclusive [activator, partial curve] | – |
| COCc1cc(C)nc2sc3c(c12)NC(c1ccc(O)c(OC)c1)N(c1ccccc1)C3=O (stereo not given) | inconclusive [activator, full curve] | – |
| COc1ccc(OCC(=O)N(Cc2cccs2)c2ccc(OC)cc2)cc1 | inconclusive [activator, single point] | – |
| NNc1nc(-c2ccccc2)nc(-c2ccccc2)c1Br | active: 22.4 µM | – |
| Cc1cccc(NC(=O)CCN2CCN(c3ccccc3F)CC2)c1 | – | inactive: 3.08% |
| O=C(Nc1ncccn1)c1cc(-c2cccc(Br)c2)nc2ccccc12 | inconclusive [activator, single point] | – |
| O=C(Cc1ccc2c(c1)OCCO2)Nc1cc(C(F)(F)F)ccc1N1CCOCC1 | inconclusive [activator, single point] | – |
| COc1c2c(cc3ccc(=O)oc13)CCO2 | inconclusive [activator, single point] | – |
| O=C(NCc1n[nH]c(=S)n1-c1ccccc1)c1ccc(S(=O)(=O)N2CCCCC2)cc1 | inconclusive [activator, partial curve] | – |
| CC(=O)CSc1ncnc2sc3c(c12)CCC(C)C3 (stereo not given) | inconclusive [activator, single point] | – |
| COc1ccc(C2=CC3=C(Br)C(=O)C(C)(OC(=O)C4CCCC4)C(=O)C3=CO2)cc1 (stereo not given) | – | inconclusive: -92.2% [activator] |
| CC(=O)N1N=C(c2ccco2)CC1c1ccc(C)cc1 (stereo not given) | – | inactive: 26.6% |
| COc1ccc(-c2cn3nc(N4CCCC(C(=O)Nc5ccccc5OC)C4)sc3n2)cc1 (stereo not given) | inconclusive [activator, single point] | – |
| Cc1cccc(N2CC(C(=O)Nc3nccs3)CC2=O)c1C (stereo not given) | – | inactive: -19% |
| COc1ccc(C2NC(=S)NC3=C2CCc2ccccc23)cc1OC (stereo not given) | inconclusive [activator, partial curve] | – |
| CC(NC(=O)COC(=O)/C=C/c1ccc(Cl)cc1)c1ccccc1 (stereo not given) | – | inactive: -7.35% |
| C[C@]12c3[nH]c4ccc(Cl)cc4c3CCN1C(=O)[C@@H](CC(=O)NCc1cccc(C(F)(F)F)c1)C[C@@H]2C(=O)N1CCCCC1 | inconclusive [activator, partial curve] | – |
